From PubChem BioAssay AID504332 (National Center for Advancing Translational Sciences (NCATS), 2011)
In all, about 350,000 compounds went through this assay and about 31,000 (8.9%) were called active. Inconclusive means that the source gave no clear call. Such entries were picked first, then a sample of the others. Calls come from the whole dose curve; as a rule, active = well fitted inhibition curve with a large enough effect; inconclusive = small, poorly fitted or top-dose-only effect; inactive = no such curve, though single readings can be large or run the other way. A potency beside an inconclusive call is a rough fit, not a confirmed value.
% is set by controls: 0 for no effect and ±100 for the full control effect; potency is the fitted concentration of half-maximal effect; tags give direction and shape of the fitted curve.
Note: nearly all actives have a fitted effect of over 75% in size.

The molecules below were run against Histone-lysine N-methyltransferase EHMT2 (Homo sapiens) (UniProt Q96KQ7) (assay: qHTS Assay for Inhibitors of Histone Lysine Methyltransferase G9a). Conditions: G9a H3K9 monomethylation, AlphaScreen, 2 h; activity, negative = inhibition: at 59 µM (top of the series) unless noted.
UniProt Q96KQ7, sequence (Q96KQ7 whole entry, looked up): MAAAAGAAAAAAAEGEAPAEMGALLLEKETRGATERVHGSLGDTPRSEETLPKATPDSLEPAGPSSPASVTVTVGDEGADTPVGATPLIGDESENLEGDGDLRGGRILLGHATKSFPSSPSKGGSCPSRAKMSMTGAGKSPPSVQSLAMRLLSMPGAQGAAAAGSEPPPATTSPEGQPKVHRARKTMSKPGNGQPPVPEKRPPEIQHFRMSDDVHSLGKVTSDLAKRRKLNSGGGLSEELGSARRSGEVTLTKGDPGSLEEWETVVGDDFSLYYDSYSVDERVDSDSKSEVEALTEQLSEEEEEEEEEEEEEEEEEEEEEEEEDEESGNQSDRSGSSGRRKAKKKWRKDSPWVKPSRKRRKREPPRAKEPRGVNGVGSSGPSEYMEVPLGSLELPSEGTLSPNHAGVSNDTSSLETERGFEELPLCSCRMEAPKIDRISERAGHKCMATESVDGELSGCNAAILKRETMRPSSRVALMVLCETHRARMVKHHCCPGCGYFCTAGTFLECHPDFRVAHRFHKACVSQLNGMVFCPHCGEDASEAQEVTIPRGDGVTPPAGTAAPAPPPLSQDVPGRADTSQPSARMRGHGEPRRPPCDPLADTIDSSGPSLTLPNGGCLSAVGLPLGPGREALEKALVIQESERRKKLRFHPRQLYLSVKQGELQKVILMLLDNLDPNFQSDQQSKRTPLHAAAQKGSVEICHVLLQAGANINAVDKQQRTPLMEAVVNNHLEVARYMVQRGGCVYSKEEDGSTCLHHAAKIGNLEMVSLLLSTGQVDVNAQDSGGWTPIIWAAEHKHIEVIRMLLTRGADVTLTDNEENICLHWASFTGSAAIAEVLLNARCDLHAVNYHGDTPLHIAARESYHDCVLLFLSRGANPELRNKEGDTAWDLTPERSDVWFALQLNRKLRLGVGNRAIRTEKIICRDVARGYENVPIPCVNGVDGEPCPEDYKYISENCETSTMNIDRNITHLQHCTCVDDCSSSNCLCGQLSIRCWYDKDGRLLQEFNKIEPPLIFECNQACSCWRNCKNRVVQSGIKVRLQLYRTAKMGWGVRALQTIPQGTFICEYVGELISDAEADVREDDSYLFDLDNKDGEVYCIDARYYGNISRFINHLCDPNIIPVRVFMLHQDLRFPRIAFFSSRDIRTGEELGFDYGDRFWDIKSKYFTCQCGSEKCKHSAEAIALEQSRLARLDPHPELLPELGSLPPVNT
In short: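 Step 1: enzyme (final 20 nM) with compound, 15 min RT. Step 2: substrate peptide 500 nM and SAM 20 uM, 2 h RT. Step 3: anti-H3K9me1 antibody and AlphaScreen beads, 10 min, then plate read.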
With `O=C(c1ccc([N+](=O)[O-])cc1)N1CCC(Cc2ccccc2)CC1` the “activity, negative = inhibition” value was inactive: -35.1% [at 102 µM].
`Cc1csc2nc(CNC(=O)c3ccco3)cn12` was tested, and the Potency was inconclusive: 79.4 µM [inhibitor, single point].
With `O=C(O)CCS(=O)(=O)c1cc(Br)cc2c1N(C(=O)C1CC1)CC2` the Potency was inconclusive: 89.1 µM [inhibitor, partial curve, poor fit].
`C/C(=N\N1C(=O)c2ccccc2NC1c1ccccc1)c1ccccc1O` (centres undefined) was tested, and the “activity, negative = inhibition” value was inactive: 14.1% [at 102 µM].
With `CCn1c(CC(=O)Nc2ccc(Cl)cc2)nnc1SCC(=O)N1CCOCC1` the “activity, negative = inhibition” value was inactive: 47.2% [at 102 µM].
`COc1ccccc1NC(=S)Nc1ccccc1F` was tested, and the activity, negative = inhibition was inconclusive: -66% [inhibitor].
`CO/N=C/c1ccc(N2CCN(C(=O)c3ccc(C)cc3)CC2)c([N+](=O)[O-])c1` was tested, and the Potency was inconclusive: 3.55 µM [inhibitor, single point].
`O=C(COC(=O)CCS(=O)(=O)c1ccccc1)Nc1ccc(N2CCCCC2)cc1` was tested, and the Potency was inconclusive: 3.98 µM [inhibitor, single point].
`CN(C)NC1CCS(=O)(=O)C1` (centres undefined) was tested, and the Potency was active: 10 µM.
In the case of `CCc1ccc(NC(=O)c2nc(S(=O)(=O)Cc3ccccc3)ncc2Cl)cc1`, the Potency is reported as inconclusive: 12.6 µM [inhibitor, partial curve, poor fit].
In the case of `COc1cccc(CNC(=O)CSC2=Nc3ccccc3N=C(c3ccc(F)cc3)C2)c1`, the “activity, negative = inhibition” value is reported as inactive: -0.406%.
`CCN(c1ccc(NC(=O)COC(=O)/C=C/c2cccs2)cc1)C(C)C` was tested, and the Potency was active: 8.91 µM.
`O=C(CNC1CCCCC1)Nc1ccc(S(=O)(=O)N2CCCCC2)cc1` was tested, and the Potency was inconclusive: 63.1 µM [inhibitor, partial curve, poor fit].
For `CCOC(=O)c1[nH]c(C)c(C(=O)N2CCN(c3ccc(F)cc3)CC2)c1C`, the activity, negative = inhibition was inconclusive: -54.7% [inhibitor].
For `O=C(Cc1cccc2ccccc12)Nc1c(F)cccc1F`, the activity, negative = inhibition was inactive: -4.91% [at 2.33 µM].
In the case of `Cc1ccc(NC(=O)Nc2nnc(N3CCCC3)s2)cc1C`, the “activity, negative = inhibition” value is reported as inactive: -48%.
With `CCN(CC)C(=O)c1ccc2c(c1)N(Cc1ccc(C(F)(F)F)cc1)C(=O)c1ccccc1S2` the “activity, negative = inhibition” value was inactive: -13.9%.
`CCOC(=O)c1[nH]c2cc(OC)c(OC)cc2c1NC(=O)C(C)N1CCN(Cc2ccccc2)CC1` (centres undefined) was tested, and the Potency was active: 44.7 µM.
`Cc1nn2c(=O)cc(COC(=O)c3cccc(NC(=O)COc4ccccc4C)c3)nc2s1` was tested, and the activity, negative = inhibition was inactive: 9.88% [at 12.7 µM].
With `CCC(C(=O)NCc1ccco1)n1nc(C)n2c(cc3occc32)c1=O` (centres undefined) the “activity, negative = inhibition” value was inactive: -12.7% [at 102 µM].
In the case of `CCC1CCCCN1C(=S)NC(=O)c1cccc([N+](=O)[O-])c1` (centres undefined), the Potency is reported as active: 44.7 µM.
`N#Cc1cccc2cnccc12` was tested, and the activity, negative = inhibition was inconclusive: -122% [inhibitor].
`CCC1CCCCN1C(=O)c1c[nH]c2ccc(S(=O)(=O)N(C)c3ccc(Cl)cc3)cc2c1=O` (centres undefined) was tested, and the Potency was inconclusive: 0.631 µM [inhibitor, single point].
For `CCc1c(-c2n[nH]c(=S)n2Cc2ccccc2)csc1C`, the Potency was active: 2 µM.
For `CC(C)(CO)Nc1ccc([N+](=O)[O-])cc1[N+](=O)[O-]`, the “activity, negative = inhibition” value was inactive: -10.8% [at 102 µM].
With `Cc1ccc(S(=O)(=O)N[C@H](C(=O)N2CCC(C(=O)N[C@@H](CC(=O)O)C(=O)O)CC2)C(C)C)cc1` the Potency was inconclusive: 89.1 µM [inhibitor, single point].
In the case of `O=[N+]([O-])c1ccc(N2CCN(c3ccc(F)cc3)CC2)cn1`, the Potency is reported as inconclusive: 70.8 µM [inhibitor, partial curve, poor fit].
With `CC(C)(C)c1ccc(C2CC2C(=O)N/N=C\c2ccc[nH]2)cc1` (centres undefined) the Potency was active: 39.8 µM.
With `S=C(NCCc1ccccc1)Nc1ccccn1` the Potency was active: 1.41 µM.
With `COC(=O)CN1C(=O)[C@H]2[C@@H](c3ccc(C)o3)N3C(=O)CN(Cc4ccc(-c5ccccc5)cc4)C(=O)[C@@]3(C)[C@H]2C1=O` the Potency was active: 39.8 µM.
For `Cn1nnnc1SCCCNCc1ccccc1OCc1ccc(Cl)cc1`, the “activity, negative = inhibition” value was inactive: 1.61%.
For `CC(C)OCCCNC(=O)Cn1ncc2c(=O)oc3ccccc3c21`, the Potency was inconclusive: 89.1 µM [inhibitor, single point].
`CC(C)CN(C)c1nc(N)c(C(=O)N=C(N)N)nc1Cl` was tested, and the activity, negative = inhibition was inactive: 16.1% [at 12.7 µM].
In the case of `O=S(=O)(c1ccc(F)cc1)c1nc(-c2ccco2)oc1Nc1ccc(F)cc1`, the Potency is reported as active: 50.1 µM.
In the case of `Cc1ccc(C=C2C(=O)c3ccccc3C2=O)o1`, the Potency is reported as active: 25.1 µM.
With `NC(=O)CC(NC(=O)c1cccc(Br)c1)c1ccc(N2CCN(c3ccc(F)cc3)CC2)c([N+](=O)[O-])c1` (centres undefined) the Potency was active: 44.7 µM.
With `CCOc1ccc(OCCNCc2ccc(OC(C)C(=O)N(C)C)c(OCC)c2)cc1` (centres undefined) the Potency was inconclusive: 79.4 µM [inhibitor, single point].
For `CCNC(=O)CSc1ncnc2sccc12`, the Potency was inconclusive: 89.1 µM [inhibitor, single point].
In the case of `CC(NC(=O)Cn1ccc2cc(S(=O)(=O)N3CCCCCC3)ccc21)c1ccccc1` (centres undefined), the “activity, negative = inhibition” value is reported as inactive: -17.1%.
For `O=C(CN1CCc2ccccc2C1)c1cccs1`, the Potency was inconclusive: 8.91 µM [inhibitor, partial curve, poor fit].
With `[O-]C1=N/[N+](=C/c2ccccc2Cl)CC1` the Potency was inconclusive: 3.55 µM [inhibitor, single point].
In the case of `O=C(CSc1n[nH]c(-c2ccccc2Cl)n1)NCCc1ccccc1`, the “activity, negative = inhibition” value is reported as inactive: -4.74%.
With `COc1ccc(N2CCN(C(=O)c3cccn3-c3nnc(N4CCCC4)s3)CC2)cc1` the Potency was inconclusive: 6.31 µM [inhibitor, partial curve, poor fit].
In the case of `O=C(CN1C(=O)NC2(CCCC2)C1=O)OCC(=O)c1cccc(Cl)c1`, the Potency is reported as active: 50.1 µM.
With `COc1ccc(OC)c(CNc2ncc(-c3cccc([N+](=O)[O-])c3)n2C)c1` the Potency was active: 28.2 µM.
For `CCCS(=O)(=O)N1CC(=O)N(c2cccc(F)c2)C(C)(C(=O)NC2CCCCCC2)C1` (centres undefined), the “activity, negative = inhibition” value was inactive: 6.51%.
In the case of `COc1ccc2c(c1)Cc1sc(NC(=O)c3cccnc3)nc1-2`, the Potency is reported as active: 44.7 µM.
For `O=S(=O)(NCc1ccco1)c1ccc(Cl)nc1`, the Potency was inconclusive: 89.1 µM [inhibitor, partial curve, poor fit].
In the case of `CCOC(=O)/C=C/C(=O)OCC(=O)Nc1cccc(Br)c1`, the Potency is reported as inconclusive: 89.1 µM [inhibitor, partial curve, poor fit].
